# Reference: publication PMC7275043 (Nature Communications, 2020)
# B1: peptide 12B (peptide)
# peptide: WDLIQLIVSDGSDLIQLIVSD
# notes: also called amyloid peptide 12B; synthetic amyloid 12B; source: synthetic peptide
# Assays:
# [1] = test system: influenza A/PR8
# [2] = biological target: T1, PB2 cap-binding domain of influenza A/PR8 (PB2CB) (Influenza A virus, UniProt P03428)
# [3] = test system: influenza A/PR8; parameters: species or system BALB/c mice; settings: mouse, in vivo
# [4] = biological target: T1, PB2 cap-binding domain of influenza A/PR8 (PB2CB); remark: listed apart in the source
# [5] = biological target: T1, PB2 cap-binding domain of influenza A/PR8 (PB2CB); remark: listed apart in the source
# [6] = test system: influenza A/PR8; type: cell-based, influenza A/Puerto Rico/8/34 (H1N1)
# [7] = test system: influenza A/PR8; type: cell-based, influenza A/Puerto Rico/8/34 (H1N1); remark: listed apart in the source
# [8] = biological target: PB2 cap-binding domain of influenza A/PR8 (influenza A/Puerto Rico/8/34 (H1N1), UniProt P03428 318-483); assay: BLI; settings: both partners purified
Molecule,effect on viral replication (area covered by plaques) [1],effect on PB2 cap-binding activity [2],virus titers in lung homogenates [3],increase of Th-T binding and scattering intensity of PB2CB [4],structure of peptide-induced PB2CB aggregates (TEM) [4],binding to immobilized PB2CB (BLI) [5],antiviral effect in multicycle replication assay [6],antiviral activity in time of addition assay [1],reduction of influenza A/PR8 plaque area [1],protection against cytopathic effects [7],ANS binding of PB2CB when seeded with peptide [4],Kd of 12B lower compared with 12Bscr2 [5] [fold],Kd [8] [nM]
Ac-WDLPQLPVSDGSDLPQLPVSD-NH2 [12Bpro2],does not affect viral replication,had no effect,did not show inhibitory effects,not,amorphous structure,did not show any affinity for PB2CB,–,–,–,–,–,–,–
Ac-WDISQVLLIDGSDISQVLLID-NH2 [12Bscr2],did not show any effect on viral,showed only a mild effect,–,not,amorphous structure,clear binding event,–,–,–,–,–,–,–
Ac-WDLIQLIVSDGSDLIQLIVSD-NH2 [12B],–,concentration-dependent loss of cap-binding function,small but significant reduction,increased Th-T binding and scattering intensity,fiber-like,clear binding event,acts as an antiviral peptide against influenza A,unchanged,~ 80%,acts as an antiviral peptide against influenza A,increased binding of 8-anilinonaphtalene-1-sulfonic acid (ANS),> 10,–
B1,–,–,–,–,–,–,–,–,–,–,–,–,65.8 ± 0.91
